Laboratory results: PMC5154350
These are yes or no findings as the source states them, for the method shown. For some of these results: In cells and extracts the contact can be indirect. Some binding calls cover weakened binding; strength is not graded here. For some of these results: Sequences can lack the tags named with a protein.

Chains of the proteins cited; added tags and fusions are not shown. Lines headed by an entry give the natural chain unless they say otherwise; changes in a name come on top. Residues count along the entry.
UniProt P35968: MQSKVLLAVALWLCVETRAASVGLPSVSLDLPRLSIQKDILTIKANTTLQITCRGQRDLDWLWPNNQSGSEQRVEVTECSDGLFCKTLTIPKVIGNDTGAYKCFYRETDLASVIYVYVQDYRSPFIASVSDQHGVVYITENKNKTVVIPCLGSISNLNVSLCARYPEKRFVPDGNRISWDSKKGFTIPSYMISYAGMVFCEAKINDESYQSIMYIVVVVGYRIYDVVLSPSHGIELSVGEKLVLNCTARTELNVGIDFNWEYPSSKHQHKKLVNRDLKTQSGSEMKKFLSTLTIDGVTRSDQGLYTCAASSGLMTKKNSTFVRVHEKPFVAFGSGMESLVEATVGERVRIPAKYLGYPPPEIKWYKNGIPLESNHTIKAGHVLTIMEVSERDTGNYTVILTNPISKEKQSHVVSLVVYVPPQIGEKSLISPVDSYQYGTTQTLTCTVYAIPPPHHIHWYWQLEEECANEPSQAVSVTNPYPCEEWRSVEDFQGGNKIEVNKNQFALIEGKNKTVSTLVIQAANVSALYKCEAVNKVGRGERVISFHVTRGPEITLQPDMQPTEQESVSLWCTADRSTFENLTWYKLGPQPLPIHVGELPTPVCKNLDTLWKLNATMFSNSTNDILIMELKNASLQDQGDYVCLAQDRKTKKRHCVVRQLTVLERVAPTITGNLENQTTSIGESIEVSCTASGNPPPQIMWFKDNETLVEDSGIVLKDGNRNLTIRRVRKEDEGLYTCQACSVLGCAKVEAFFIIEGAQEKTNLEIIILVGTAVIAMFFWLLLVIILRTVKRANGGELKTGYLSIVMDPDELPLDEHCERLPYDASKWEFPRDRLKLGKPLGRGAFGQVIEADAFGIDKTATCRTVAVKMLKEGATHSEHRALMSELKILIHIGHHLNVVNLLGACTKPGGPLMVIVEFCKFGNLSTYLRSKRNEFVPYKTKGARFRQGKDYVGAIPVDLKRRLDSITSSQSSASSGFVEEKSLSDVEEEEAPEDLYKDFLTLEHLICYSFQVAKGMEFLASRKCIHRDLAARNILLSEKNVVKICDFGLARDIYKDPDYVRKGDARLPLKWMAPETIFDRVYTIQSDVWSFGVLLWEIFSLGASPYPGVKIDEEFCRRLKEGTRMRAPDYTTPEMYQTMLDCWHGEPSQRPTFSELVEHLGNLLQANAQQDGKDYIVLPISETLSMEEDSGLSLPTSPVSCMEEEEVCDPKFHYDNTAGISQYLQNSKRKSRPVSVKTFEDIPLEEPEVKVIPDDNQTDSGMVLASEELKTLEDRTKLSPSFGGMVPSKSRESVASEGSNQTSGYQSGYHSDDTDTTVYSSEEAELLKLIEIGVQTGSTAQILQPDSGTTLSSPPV
vascular endothelial cell growth factor receptor-2 (VEGFR2) (human (endogenous in CAG and HMEC-1 cells)): residues 20-1356 of P35968
UniProt P13612: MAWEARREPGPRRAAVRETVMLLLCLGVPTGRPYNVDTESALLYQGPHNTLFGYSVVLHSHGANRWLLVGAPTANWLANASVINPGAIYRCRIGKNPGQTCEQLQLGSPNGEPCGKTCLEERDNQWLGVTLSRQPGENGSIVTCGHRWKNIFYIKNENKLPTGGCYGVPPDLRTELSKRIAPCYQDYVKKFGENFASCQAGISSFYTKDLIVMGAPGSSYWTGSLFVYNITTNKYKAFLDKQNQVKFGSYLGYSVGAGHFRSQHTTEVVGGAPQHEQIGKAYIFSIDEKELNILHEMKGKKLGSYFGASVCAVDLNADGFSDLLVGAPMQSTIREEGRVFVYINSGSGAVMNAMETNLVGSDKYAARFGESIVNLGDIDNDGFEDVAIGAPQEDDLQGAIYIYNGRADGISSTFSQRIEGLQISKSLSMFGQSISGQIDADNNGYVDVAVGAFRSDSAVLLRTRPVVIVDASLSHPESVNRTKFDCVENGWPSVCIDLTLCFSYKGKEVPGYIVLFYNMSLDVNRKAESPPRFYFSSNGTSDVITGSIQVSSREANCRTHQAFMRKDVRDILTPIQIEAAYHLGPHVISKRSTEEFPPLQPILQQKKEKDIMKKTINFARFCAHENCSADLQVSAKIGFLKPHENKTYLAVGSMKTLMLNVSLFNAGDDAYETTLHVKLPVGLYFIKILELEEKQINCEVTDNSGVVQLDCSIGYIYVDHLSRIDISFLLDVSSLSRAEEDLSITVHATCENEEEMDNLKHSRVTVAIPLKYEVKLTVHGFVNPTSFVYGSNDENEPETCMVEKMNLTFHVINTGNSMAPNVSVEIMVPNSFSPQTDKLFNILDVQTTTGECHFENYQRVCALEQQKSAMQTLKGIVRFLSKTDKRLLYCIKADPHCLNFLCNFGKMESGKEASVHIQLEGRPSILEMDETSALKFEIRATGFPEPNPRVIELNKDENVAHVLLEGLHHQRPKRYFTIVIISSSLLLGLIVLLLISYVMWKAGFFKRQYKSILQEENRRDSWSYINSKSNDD
UniProt P05556: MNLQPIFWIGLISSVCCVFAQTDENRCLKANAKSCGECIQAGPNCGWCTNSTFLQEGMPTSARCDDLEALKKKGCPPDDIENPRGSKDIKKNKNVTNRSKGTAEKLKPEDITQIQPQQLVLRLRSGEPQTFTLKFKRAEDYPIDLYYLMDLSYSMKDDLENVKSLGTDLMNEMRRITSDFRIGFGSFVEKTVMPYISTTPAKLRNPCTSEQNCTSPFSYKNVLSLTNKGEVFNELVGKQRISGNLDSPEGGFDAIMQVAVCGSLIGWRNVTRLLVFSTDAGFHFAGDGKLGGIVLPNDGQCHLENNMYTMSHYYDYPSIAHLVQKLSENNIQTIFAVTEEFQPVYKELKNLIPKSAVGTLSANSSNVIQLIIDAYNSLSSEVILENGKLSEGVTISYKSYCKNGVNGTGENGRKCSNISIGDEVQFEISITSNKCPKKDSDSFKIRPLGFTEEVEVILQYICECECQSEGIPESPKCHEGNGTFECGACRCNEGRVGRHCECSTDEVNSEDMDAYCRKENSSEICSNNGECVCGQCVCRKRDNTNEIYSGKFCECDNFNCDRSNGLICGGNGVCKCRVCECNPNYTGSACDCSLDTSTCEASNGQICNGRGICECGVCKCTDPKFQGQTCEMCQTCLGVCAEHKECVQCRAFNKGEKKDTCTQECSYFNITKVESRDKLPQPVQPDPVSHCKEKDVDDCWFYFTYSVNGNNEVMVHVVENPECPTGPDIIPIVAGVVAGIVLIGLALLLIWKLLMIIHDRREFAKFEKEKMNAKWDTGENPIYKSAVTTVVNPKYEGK

T1: recombinant GST-mouse-S1ED (syndecan-1 ectodomain fused to GST) (mouse) (UniProt P18828)
T1 sequence: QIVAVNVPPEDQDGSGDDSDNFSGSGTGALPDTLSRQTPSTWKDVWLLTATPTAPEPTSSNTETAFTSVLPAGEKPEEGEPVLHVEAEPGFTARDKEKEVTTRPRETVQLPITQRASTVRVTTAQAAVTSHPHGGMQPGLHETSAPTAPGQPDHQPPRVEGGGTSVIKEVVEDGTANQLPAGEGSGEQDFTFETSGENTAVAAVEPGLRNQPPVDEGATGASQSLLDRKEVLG

T2: shed mouse Sdc1 ectodomain (mouse) (UniProt P18828)
T2 sequence: T1 sequence


Tests used:
[1] = molecular target: T1, recombinant GST-mouse-S1ED (syndecan-1 ectodomain fused to GST) (mouse); experiment: pull-down; recombinant His-tagged VEGFR2 protein precipitated with beads bearing GST or GST-S1ED; blot with anti-His; both purified
[2] = molecular target: T1, recombinant GST-mouse-S1ED (syndecan-1 ectodomain fused to GST) (mouse); experiment: pull-down; HPSE-low CAG cell lysates incubated at 4 °C overnight with 3 μM GST or GST-S1ED, captured on glutathione sepharose; blots for VLA-4 and VEGFR2; only the target purified
[3] = molecular target: T1, recombinant GST-mouse-S1ED (syndecan-1 ectodomain fused to GST) (mouse); experiment: pull-down; HMEC-1 cell lysate incubated overnight with glutathione beads coated with GST or GST-S1ED; blots for VLA-4 and VEGFR2; only the target purified
[4] = molecular target: T2, shed mouse Sdc1 ectodomain (mouse); experiment: pull-down; shed mouse Sdc1 (wild type or mutant) captured from conditioned medium on mAb281.2 protein G beads at 4 °C overnight, beads re-incubated with CAG (HPSE-low) cell lysates at 4 °C overnight; blots for VLA-4 and VEGFR2; only the target purified
[5] = molecular target: vascular endothelial cell growth factor receptor-2 (VEGFR2) (human (endogenous in CAG and HMEC-1 cells)) (UniProt P35968); experiment: pull-down; competition: 30 μM S1ED peptide added to HPSE-low CAG cell lysates with 3 μM GST-S1ED, 4 °C overnight, glutathione sepharose; loss of VLA-4 or VEGFR2 capture read on blots; only the binder purified
[6] = molecular target: very late antigen-4 (VLA-4, α4β1 integrin) (human (endogenous in CAG and HMEC-1 cells)) (UniProt P13612+P05556); experiment: as above

Row | binding [1] | binding [2] | binding [3] | binding [4] | binding [5] | binding [6] | Molecule
1 | binds |  |  |  |  |  | His-recombinant VEGFR2 protein (purified, recombinant VEGFR2 extracellular domain) (from UniProt P35968 20-764) (domain or fragment)
2 |  | binds | binds | binds |  |  | vascular endothelial cell growth factor receptor-2 (VEGFR2) (from UniProt P35968 20-1356)
3 |  | binds | binds | binds |  |  | very late antigen-4 (VLA-4, α4β1 integrin) (from UniProt P13612 34-1032; P05556 21-798) (complex)
4 |  |  |  |  | no binding (tested: 30 μM) | binds | DFTFETSGENTAVVAVEPDRRNQS (peptide, UniProt P18827 210-233) [S1ED^210-233 peptide]
5 |  |  |  |  | binds | binds | DFTFETSGENTAVVAVEPDRRNQSPVD (peptide, UniProt P18827 210-236) [S1ED^210-236 peptide]
6 |  |  |  |  | binds | no binding (tested: 30 μM) | ETSGENTAVVAVEPDRRNQSPVDQGAT (peptide, UniProt P18827 214-240) [S1ED^214-240 peptide]
